Assay results published in PubChem BioAssay AID360 (National Center for Advancing Translational Sciences (NCATS), 2006).
Screen size: about 48,000 compounds; about 550 (1.1%) were called active. Another 4% or so got no clear call; they are omitted. No stated cut-off is given here; in the data, active means potency below about 15 µM; inconclusive means mostly about 16 µM to 33 µM; inactive means weaker than that. The list shows a part of the results.

These molecules were tested against Lysosomal acid glucosylceramidase (Homo sapiens) (UniProt P04062) (assay: Glucocerebrosidase). Conditions: purified enzyme, resorufin glucoside fluorescence (screen aimed at inhibitors), 20 min.
Summary of the method: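 Compounds titrated against 0.2 nM normal enzyme, 30 uM resorufin beta-D-glucopyranoside substrate, citrate/phosphate buffer with taurocholate and tween-20, pH 5.9. Reaction ran 20 min at room temperature; fluorescence (Ex 548/Em 600) gave AC50.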
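Further: the screen sought inhibitors.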
Potency means the concentration at half of the fitted maximal effect.

Chain of UniProt P04062 (P04062 whole entry, looked up): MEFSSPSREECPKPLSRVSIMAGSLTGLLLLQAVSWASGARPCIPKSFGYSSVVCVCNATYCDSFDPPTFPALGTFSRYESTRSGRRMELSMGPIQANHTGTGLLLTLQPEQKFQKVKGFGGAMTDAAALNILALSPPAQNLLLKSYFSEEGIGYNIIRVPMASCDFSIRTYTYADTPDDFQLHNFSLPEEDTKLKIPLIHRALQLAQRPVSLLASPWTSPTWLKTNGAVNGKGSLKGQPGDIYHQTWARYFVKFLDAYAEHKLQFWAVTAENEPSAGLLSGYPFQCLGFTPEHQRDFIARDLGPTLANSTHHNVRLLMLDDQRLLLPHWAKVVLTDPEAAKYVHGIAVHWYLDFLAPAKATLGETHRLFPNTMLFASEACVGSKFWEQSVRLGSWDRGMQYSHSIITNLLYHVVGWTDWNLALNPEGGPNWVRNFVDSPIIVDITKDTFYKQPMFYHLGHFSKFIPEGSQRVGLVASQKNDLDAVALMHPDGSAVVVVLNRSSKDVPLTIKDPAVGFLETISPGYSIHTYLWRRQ

Potency, inactive:
O=C(CSc1ncc(-c2ccc(F)cc2)[nH]1)N1CCCCC1 > 76.9 µM
CCOC(=O)CC1=C(C#N)C(c2cccnc2)C(C(=O)OCC)=C(N)O1 (stereo not given) > 76.9 µM
O=C(NCc1ccc(F)cc1)C1CC(=O)N(CCc2ccccc2)C1 (stereo not given) > 76.9 µM
C/C(=C\c1ccco1)C1Nc2cccc3cccc(c23)N1 > 76.9 µM
COc1ccc(S(=O)(=O)N(C)CC(=O)N2CCN(C)CC2)cc1C > 76.9 µM
COc1ccc(NC(=O)Nc2ccc(C)cc2OC(F)F)cc1OC > 76.9 µM
N#Cc1c(NC(=O)CSC2=NCCS2)sc2c1CCCC2 > 76.9 µM
CCOc1ccc(N2CC(C(=O)NC(C)C)CC2=O)cc1 (stereo not given) > 76.9 µM
Cc1ccc(-n2ncc3c(=O)n(CC(=O)NC4CCCCC4)cnc32)cc1 > 76.9 µM
O=C1N2CCSC2=NC1(Nc1ccccn1)C(F)(F)F (stereo not given) > 76.9 µM
O=C(O)C1CCCN1c1ncnc2ccccc12 (stereo not given) > 76.9 µM
O=C(COc1ccccc1O)N1CCN(C(=O)c2ccco2)CC1 > 76.9 µM
Cc1cc(OCCSc2nnc(-c3cccs3)n2C)ccc1Cl > 76.9 µM
O=C(NCCOc1ccccc1)c1n[nH]c(=O)c2ccccc12 > 76.9 µM
CC(CN1CCCCC1)OC(=O)c1ccc2c(c1)OCO2 (stereo not given) > 76.9 µM
COC(=O)c1ccc(OC(=O)C2CC(=O)N(c3ccc(C)cc3C)C2)cc1 (stereo not given) > 76.9 µM
O=C(O)c1cc2nc(-c3ccccc3)cc(C(F)(F)F)n2n1 > 76.9 µM
CCOC(=O)Cc1c(C)nc2c(-c3ccccc3)c[nH]n2c1=O
CCCOc1ccc(C2C(C(=O)c3ccc(C)o3)=C(O)C(=O)N2CCN2CCOCC2)cc1OC (stereo not given) > 76.9 µM
CCOc1ccc(CN2C(=O)c3ccccc3C2C(=O)NCc2cccnc2)cc1 (stereo not given) > 76.9 µM
O=C(CS(=O)(=O)c1cn(Cc2ccc(F)cc2)c2ccccc12)N1CCCCC1 > 76.9 µM
O=C(CN1C(=O)c2cccc3cccc1c23)Nc1ccc(S(=O)(=O)N2CCOCC2)cc1 > 76.9 µM
CC1(C)Cc2c(C#N)c(OCC(=O)c3ccc(Cl)cc3)nc(-c3ccco3)c2CO1 > 76.9 µM
O=C(CCN1CCCCC1)NCC1OCCc2ccccc21 (stereo not given) > 76.9 µM
O=C(CC1(O)C(=O)N(Cc2ccccc2Cl)c2ccccc21)c1ccco1 (stereo not given) > 76.9 µM
